Data published in paper PMC9430164.
These are yes or no findings as the source states them, for the method shown. In cells and extracts the contact can be indirect. Some entries that bind do so weakly or less than the wild type. For part of these data: Tags and fused reporters may be left off the sequences shown.

Legend:
[1] = target: His-tagged DacA(ΔC) (DacA without the C-terminal membrane-anchoring domain) (E. coli) (UniProt P0AEB2); test: pull-down; supernatant of MG1655 chromosomal PBP-3×Flag cells mixed with supernatant of ER2566 cells expressing His-tagged DacA or DacA(ΔC) (nontagged as control); Talon metal affinity resin; buffer A (50 mM Tris-HCl pH 8.0, 150 mM NaCl) with 1% n-dodecyl-β-D-maltoside; elution with 200 mM …; Western blot with anti-Flag antibody
[2] = target: T1, His-tagged DacA (PG carboxypeptidase DacA, without its signal sequence) (E. coli) (UniProt P0AEB2); test: as above
T1 sequence: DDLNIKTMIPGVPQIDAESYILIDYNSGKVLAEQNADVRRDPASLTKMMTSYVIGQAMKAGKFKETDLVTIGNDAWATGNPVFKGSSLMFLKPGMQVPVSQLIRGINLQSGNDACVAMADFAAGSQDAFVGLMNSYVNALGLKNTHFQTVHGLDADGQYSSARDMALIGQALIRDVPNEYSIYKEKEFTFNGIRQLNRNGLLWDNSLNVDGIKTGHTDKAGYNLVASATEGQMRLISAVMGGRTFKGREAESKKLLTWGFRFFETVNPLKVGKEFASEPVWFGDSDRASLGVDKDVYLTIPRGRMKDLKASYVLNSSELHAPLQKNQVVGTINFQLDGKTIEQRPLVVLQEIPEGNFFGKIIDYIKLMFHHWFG

[3] = target: His-tagged DacA(ΔC) (DacA without the C-terminal membrane-anchoring domain) (E. coli) (UniProt P0AEB2); test: pull-down; supernatant of ER2566 cells overexpressing full-length PBP1a or PBP1b mixed with supernatant of ER2566 cells expressing His-tagged DacA or DacA(ΔC); Talon resin; eluted proteins separated on 4 to 20% gradient Tris-glycine polyacrylamide gels
[4] = target: T1, His-tagged DacA (PG carboxypeptidase DacA, without its signal sequence) (E. coli); test: as above

B1: PBP1b with three Flag tags at the C terminus (chromosomal) (enzyme, UniProt P02919 1-844)
chain: MAGNDREPIGRKGKPTRPVKQKVSRRRYEDDDDYDDYDDYEDEEPMPRKGKGKGKGRKPRGKRGWLWLLLKLAIVFAVLIAIYGVYLDQKIRSRIDGKVWQLPAAVYGRMVNLEPDMTISKNEMVKLLEATQYRQVSKMTRPGEFTVQANSIEMIRRPFDFPDSKEGQVRARLTFDGDHLATIVNMENNRQFGFFRLDPRLITMISSPNGEQRLFVPRSGFPDLLVDTLLATEDRHFYEHDGISLYSIGRAVLANLTAGRTVQGASTLTQQLVKNLFLSSERSYWRKANEAYMALIMDARYSKDRILELYMNEVYLGQSGDNEIRGFPLASLYYFGRPVEELSLDQQALLVGMVKGASIYNPWRNPKLALERRNLVLRLLQQQQIIDQELYDMLSARPLGVQPRGGVISPQPAFMQLVRQELQAKLGDKVKDLSGVKIFTTFDSVAQDAAEKAAVEGIPALKKQRKLSDLETAIVVVDRFSGEVRAMVGGSEPQFAGYNRAMQARRSIGSLAKPATYLTALSQPKIYRLNTWIADAPIALRQPNGQVWSPQNDDRRYSESGRVMLVDALTRSMNVPTVNLGMALGLPAVTETWIKLGVPKDQLHPVPAMLLGALNLTPIEVAQAFQTIASGGNRAPLSALRSVIAEDGKVLYQSFPQAERAVPAQAAYLTLWTMQQVVQRGTGRQLGAKYPNLHLAGKTGTTNNNVDTWFAGIDGSTVTITWVGRDNNQPTKLYGASGAMSIYQRYLANQTPTPLNLVPPEDIADMGVDYDGNFVCSGGMRILPVWTSDPQSLCQQSEMQQQPSGNPFDQSSQPQQQPQQQPAQQEQKDSDGVAGWIKDMFGSN
binding [1]: no binding
binding [2]: binds

B2: overexpressed full-length PBP1b (enzyme, UniProt P02919 1-844)
chain: MAGNDREPIGRKGKPTRPVKQKVSRRRYEDDDDYDDYDDYEDEEPMPRKGKGKGKGRKPRGKRGWLWLLLKLAIVFAVLIAIYGVYLDQKIRSRIDGKVWQLPAAVYGRMVNLEPDMTISKNEMVKLLEATQYRQVSKMTRPGEFTVQANSIEMIRRPFDFPDSKEGQVRARLTFDGDHLATIVNMENNRQFGFFRLDPRLITMISSPNGEQRLFVPRSGFPDLLVDTLLATEDRHFYEHDGISLYSIGRAVLANLTAGRTVQGASTLTQQLVKNLFLSSERSYWRKANEAYMALIMDARYSKDRILELYMNEVYLGQSGDNEIRGFPLASLYYFGRPVEELSLDQQALLVGMVKGASIYNPWRNPKLALERRNLVLRLLQQQQIIDQELYDMLSARPLGVQPRGGVISPQPAFMQLVRQELQAKLGDKVKDLSGVKIFTTFDSVAQDAAEKAAVEGIPALKKQRKLSDLETAIVVVDRFSGEVRAMVGGSEPQFAGYNRAMQARRSIGSLAKPATYLTALSQPKIYRLNTWIADAPIALRQPNGQVWSPQNDDRRYSESGRVMLVDALTRSMNVPTVNLGMALGLPAVTETWIKLGVPKDQLHPVPAMLLGALNLTPIEVAQAFQTIASGGNRAPLSALRSVIAEDGKVLYQSFPQAERAVPAQAAYLTLWTMQQVVQRGTGRQLGAKYPNLHLAGKTGTTNNNVDTWFAGIDGSTVTITWVGRDNNQPTKLYGASGAMSIYQRYLANQTPTPLNLVPPEDIADMGVDYDGNFVCSGGMRILPVWTSDPQSLCQQSEMQQQPSGNPFDQSSQPQQQPQQQPAQQEQKDSDGVAGWIKDMFGSN
binding [3]: no binding
binding [4]: binds

B3: PBP1a with three Flag tags at the C terminus (chromosomal) (enzyme, UniProt P02918 1-850)
chain: MKFVKYFLILAVCCILLGAGSIYGLYRYIEPQLPDVATLKDVRLQIPMQIYSADGELIAQYGEKRRIPVTLDQIPPEMVKAFIATEDSRFYEHHGVDPVGIFRAASVALFSGHASQGASTITQQLARNFFLSPERTLMRKIKEVFLAIRIEQLLTKDEILELYLNKIYLGYRAYGVGAAAQVYFGKTVDQLTLNEMAVIAGLPKAPSTFNPLYSMDRAVARRNVVLSRMLDEGYITQQQFDQTRTEAINANYHAPEIAFSAPYLSEMVRQEMYNRYGESAYEDGYRIYTTITRKVQQAAQQAVRNNVLDYDMRHGYRGPANVLWKVGESAWDNNKITDTLKALPTYGPLLPAAVTSANPQQATAMLADGSTVALSMEGVRWARPYRSDTQQGPTPRKVTDVLQTGQQIWVRQVGDAWWLAQVPEVNSALVSINPQNGAVMALVGGFDFNQSKFNRATQALRQVGSNIKPFLYTAAMDKGLTLASMLNDVPISRWDASAGSDWQPKNSPPQYAGPIRLRQGLGQSKNVVMVRAMRAMGVDYAAEYLQRFGFPAQNIVHTESLALGSASFTPMQVARGYAVMANGGFLVDPWFISKIENDQGGVIFEAKPKVACPECDIPVIYGDTQKSNVLENNDVEDVAISREQQNVSVPMPQLEQANQALVAKTGAQEYAPHVINTPLAFLIKSALNTNIFGEPGWQGTGWRAGRDLQRRDIGGKTGTTNSSKDAWFSGYGPGVVTSVWIGFDDHRRNLGHTTASGAIKDQISGYEGGAKSAQPAWDAYMKAVLEGVPEQPLTPPPGIVTVNIDRSTGQLANGGNSREEYFIEGTQPTQQAVHEVGTTIIDNGEAQELF
binding [1]: no binding
binding [2]: binds

B4: overexpressed full-length PBP1a (enzyme, UniProt P02918 1-850)
chain: MKFVKYFLILAVCCILLGAGSIYGLYRYIEPQLPDVATLKDVRLQIPMQIYSADGELIAQYGEKRRIPVTLDQIPPEMVKAFIATEDSRFYEHHGVDPVGIFRAASVALFSGHASQGASTITQQLARNFFLSPERTLMRKIKEVFLAIRIEQLLTKDEILELYLNKIYLGYRAYGVGAAAQVYFGKTVDQLTLNEMAVIAGLPKAPSTFNPLYSMDRAVARRNVVLSRMLDEGYITQQQFDQTRTEAINANYHAPEIAFSAPYLSEMVRQEMYNRYGESAYEDGYRIYTTITRKVQQAAQQAVRNNVLDYDMRHGYRGPANVLWKVGESAWDNNKITDTLKALPTYGPLLPAAVTSANPQQATAMLADGSTVALSMEGVRWARPYRSDTQQGPTPRKVTDVLQTGQQIWVRQVGDAWWLAQVPEVNSALVSINPQNGAVMALVGGFDFNQSKFNRATQALRQVGSNIKPFLYTAAMDKGLTLASMLNDVPISRWDASAGSDWQPKNSPPQYAGPIRLRQGLGQSKNVVMVRAMRAMGVDYAAEYLQRFGFPAQNIVHTESLALGSASFTPMQVARGYAVMANGGFLVDPWFISKIENDQGGVIFEAKPKVACPECDIPVIYGDTQKSNVLENNDVEDVAISREQQNVSVPMPQLEQANQALVAKTGAQEYAPHVINTPLAFLIKSALNTNIFGEPGWQGTGWRAGRDLQRRDIGGKTGTTNSSKDAWFSGYGPGVVTSVWIGFDDHRRNLGHTTASGAIKDQISGYEGGAKSAQPAWDAYMKAVLEGVPEQPLTPPPGIVTVNIDRSTGQLANGGNSREEYFIEGTQPTQQAVHEVGTTIIDNGEAQELF
binding [3]: no binding
binding [4]: binds

B5: PBP2 with three Flag tags at the C terminus (chromosomal) (enzyme, UniProt P0AD65 1-633)
chain: MKLQNSFRDYTAESALFVRRALVAFLGILLLTGVLIANLYNLQIVRFTDYQTRSNENRIKLVPIAPSRGIIYDRNGIPLALNRTIYQIEMMPEKVDNVQQTLDALRSVVDLTDDDIAAFRKERARSHRFTSIPVKTNLTEVQVARFAVNQYRFPGVEVKGYKRRYYPYGSALTHVIGYVSKINDKDVERLNNDGKLANYAATHDIGKLGIERYYEDVLHGQTGYEEVEVNNRGRVIRQLKEVPPQAGHDIYLTLDLKLQQYIETLLAGSRAAVVVTDPRTGGVLALVSTPSYDPNLFVDGISSKDYSALLNDPNTPLVNRATQGVYPPASTVKPYVAVSALSAGVITRNTTLFDPGWWQLPGSEKRYRDWKKWGHGRLNVTRSLEESADTFFYQVAYDMGIDRLSEWMGKFGYGHYTGIDLAEERSGNMPTREWKQKRFKKPWYQGDTIPVGIGQGYWTATPIQMSKALMILINDGIVKVPHLLMSTAEDGKQVPWVQPHEPPVGDIHSGYWELAKDGMYGVANRPNGTAHKYFASAPYKIAAKSGTAQVFGLKANETYNAHKIAERLRDHKLMTAFAPYNNPQVAVAMILENGGAGPAVGTLMRQILDHIMLGDNNTDLPAENPAVAAAEDH
binding [1]: no binding
binding [2]: binds

B6: PBP3 with three Flag tags at the C terminus (chromosomal) (enzyme, UniProt P0AD68 1-577)
chain: MKAAAKTQKPKRQEEHANFISWRFALLCGCILLALAFLLGRVAWLQVISPDMLVKEGDMRSLRVQQVSTSRGMITDRSGRPLAVSVPVKAIWADPKEVHDAGGISVGDRWKALANALNIPLDQLSARINANPKGRFIYLARQVNPDMADYIKKLKLPGIHLREESRRYYPSGEVTAHLIGFTNVDSQGIEGVEKSFDKWLTGQPGERIVRKDRYGRVIEDISSTDSQAAHNLALSIDERLQALVYRELNNAVAFNKAESGSAVLVDVNTGEVLAMANSPSYNPNNLSGTPKEAMRNRTITDVFEPGSTVKPMVVMTALQRGVVRENSVLNTIPYRINGHEIKDVARYSELTLTGVLQKSSNVGVSKLALAMPSSALVDTYSRFGLGKATNLGLVGERSGLYPQKQRWSDIERATFSFGYGLMVTPLQLARVYATIGSYGIYRPLSITKVDPPVPGERVFPESIVRTVVHMMESVALPGGGGVKAAIKGYRIAIKTGTAKKVGPDGRYINKYIAYTAGVAPASQPRFALVVVINDPQAGKYYGGAVSAPVFGAIMGGVLRTMNIEPDALTTGDKNEFV
binding [1]: no binding
binding [2]: binds
